In the antibiotic and cytotoxicity screens of Wong et al. (2023) one finds cytotoxicity call data, which are given here for 30 compounds.

Structures are written as SMILES. The list shows a part of the results.

This test deals with HepG2. Briefly: cytotoxicity call (relative viability < 0.9). Conditions: 10 µM.
For the compound `Cc1cc(C)c(N(Cc2ccccc2)S(=O)(=O)c2ccc(OCCNC(=O)c3cc4ccccc4o3)cc2)c(C(=O)NO)c1`, the cytotoxicity call was “active”. The entry for `C[C@H](CO)N1C[C@H](C)[C@@H](CN(C)C(=O)Nc2ccc3c(c2)OCO3)OCc2cn(nn2)CCCC1=O` is “inactive”; for `C[C@@H]1CN([C@@H](C)CO)C(=O)c2cc(C#CCN(C)C)cnc2O[C@H]1CN(C)Cc1cccc(C(=O)O)c1` it is “inactive”; for `COc1ccc(S(=O)(=O)N(C)C[C@H]2Oc3cc(C#CC4CC4)ccc3S(=O)(=O)N([C@@H](C)CO)C[C@@H]2C)cc1` it is “inactive”.

In the case of `O=C(O)C[C@@H]1CC[C@@H]2[C@H](COC[C@@H](O)CN2S(=O)(=O)c2ccc(F)cc2)O1`, the cytotoxicity call is “inactive”. On to `CO[C@@H]1CN(C)C(=O)c2cc(NS(=O)(=O)c3cn(C)cn3)ccc2OC[C@@H](C)N(CCC(F)(F)F)C[C@@H]1C`, for which the cytotoxicity call was “inactive”. For the compound `CCOC(=O)[C@@H](N)Cc1ccc(O)c(O)c1`, the cytotoxicity call was “inactive”.

Consider `C[C@@H]1CCCCO[C@H](CN(C)Cc2ccc(Cl)c(Cl)c2)[C@@H](C)CN([C@H](C)CO)C(=O)c2cc(NS(=O)(=O)c3ccccc3)ccc2O1`, for which the cytotoxicity call is “inactive”. As for `Cn1c[n+](NC(=O)c2ccc(C(=O)ON3C(=O)CCC3=O)cc2)cn1`, the cytotoxicity call was “inactive”. In the case of `COc1ccc(CN(C)C[C@H]2OCCCC[C@@H](C)Oc3ccc(NC(=O)C4CCCCC4)cc3C(=O)N([C@@H](C)CO)C[C@@H]2C)cc1`, the cytotoxicity call is “inactive”. Then `C[C@@H]1CCCCO[C@@H](CN(C)Cc2ccc(C(F)(F)F)cc2)[C@@H](C)CN([C@@H](C)CO)C(=O)c2cc(NC(=O)Nc3ccc(C(F)(F)F)cc3)ccc2O1`, with “inactive”.

As to `Cc1noc(C)c1S(=O)(=O)N(C)C[C@@H]1OCCCC[C@@H](C)Oc2ccc(NS(C)(=O)=O)cc2C(=O)N([C@@H](C)CO)C[C@@H]1C`, the cytotoxicity call is “inactive”. The entry for `Cc1ccc(S(=O)(=O)N(C)C[C@@H]2Oc3ccc(NC(=O)NC(C)C)cc3CC(=O)N([C@@H](C)CO)C[C@@H]2C)cc1` is “inactive”.

On to `C[C@H](CO)N1C[C@H](C)[C@H](CN(C)Cc2ccc(C(F)(F)F)cc2)Oc2ccc(NC(=O)Cc3cn(C)c4ccccc34)cc2C1=O`, for which the cytotoxicity call is “inactive”. The entry for `CC(=O)N(C)c1nc(N)n(-c2ccccc2)n1` is “inactive”; for `Cc1noc(C)c1S(=O)(=O)N(C)C[C@@H]1Oc2c(NS(=O)(=O)c3cccs3)cccc2C(=O)N([C@H](C)CO)C[C@@H]1C` it is “inactive”; for `COc1cc(/C=C/C(=O)N2CCC=CC2=O)cc(OC)c1OC(=O)CCCCCCCCCCC(=O)Oc1c(OC)cc(/C=C/C(=O)N2CCC=CC2=O)cc1OC` it is “inactive”. Then `CC(C)NC(=O)Nc1ccc2c(c1)C(=O)N([C@@H](C)CO)C[C@@H](C)[C@@H](CN(C)S(C)(=O)=O)OCCCC[C@@H](C)O2`, with “inactive”; and `C[C@@H]1CCCCO[C@H](CN(C)C(=O)CCC(F)(F)F)[C@H](C)CN([C@@H](C)CO)C(=O)c2cc(NS(=O)(=O)c3cccs3)ccc2O1`, with “inactive”. Take `Nc1ccc(S(=O)(=O)NC(=O)c2ccccc2)cc1`: the cytotoxicity call was “inactive”. Then `C[C@@H]1CN([C@@H](C)CO)C(=O)c2cc(NC(=O)Nc3ccc(F)cc3)ccc2O[C@@H](C)CCCCO[C@@H]1CN(C)Cc1ccccc1`, with “active”; and `C[C@H]1CN([C@@H](C)CO)C(=O)Cc2cc(NC(=O)Cc3cn(C)c4ccccc34)ccc2O[C@H]1CN(C)C(=O)Nc1ccc(C(F)(F)F)cc1`, with “inactive”; and `C[C@H]1CN([C@@H](C)CO)C(=O)c2cccc(NC(=O)NC3CCCCC3)c2O[C@@H]1CN(C)Cc1ccc(Cl)c(Cl)c1`, with “inactive”.

As to `C[C@H](CO)N1C[C@H](C)[C@@H](CN(C)C(=O)Nc2ccc(C(F)(F)F)cc2)Oc2ccc(NS(=O)(=O)c3ccc(Cl)cc3)cc2C1=O`, the cytotoxicity call is “inactive”. As to `Cc1ccnc(NC(=O)Cn2cnc3c2c(=O)n(C)c(=O)n3C)c1`, the cytotoxicity call is “inactive”. The entry for `Cn1cccc1CNCCCN1CCOCC1` is “inactive”; for `CC(C)(Oc1ccc(C2CC2(Cl)Cl)cc1)C(=O)O` (stereo not given) it is “inactive”; for `COC(=O)CCc1c(c/2[nH]c1/C=C/1\N=C(/C=C/3\N=C(/C=C/4\N/C(=C2)[C@]2(C)[C@H](C(=O)OC)C(=CC=C42)C(=O)OC)C(=C3C=C)C)C(=C1CCC(=O)O)C)C` it is “active”. Then `C[C@@H]1CN([C@@H](C)CO)C(=O)Cc2cc(NC(=O)CCN3CCOCC3)ccc2O[C@@H]1CN(C)S(=O)(=O)c1cn(C)cn1`, with “inactive”; and `C[C@@H]1CN([C@@H](C)CO)C(=O)CCCn2cc(nn2)CO[C@@H]1CN(C)S(=O)(=O)c1ccc(-c2ccccc2)cc1`, with “inactive”.
